# In the supplement of paper PMC8728848:
# The list shows a part of the results.
# Tests used:
# Experiment in all cases: glycan array binding signal (z-score within array); higher = stronger binding
# Conditions in all cases: glycan notation: IUPAC condensed, linker removed
# [1] = target: Gal(b1-4)GlcNAc(b1-2)Man(a1-6)[GlcNAc(b1-2)Man(a1-3)]Man(b1-4)GlcNAc(b1-4)GlcNAc
# Outline: (§1)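 The binding signal is a Z-score computed within each array. Data were drawn from 3228 arrays in the Consortium for Functional Glycomics database, restricted to those with a known protein sequence. Scores were averaged over arrays of the same protein sequence at different concentrations or buffers, and over linkers, and negative values can be taken as non-binding.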
# [2] = target: Gal(b1-4)GlcNAc(b1-2)Man(a1-6)[Man(a1-3)]Man(b1-4)GlcNAc(b1-4)GlcNAc
# Outline: as §1
# [3] = target: Gal(b1-4)GlcNAc(b1-2)[Gal(b1-4)GlcNAc(b1-4)]Man(a1-3)[Gal(b1-4)GlcNAc(b1-2)Man(a1-6)]Man(b1-4)GlcNAc(b1-4)GlcNAc
# Outline: as §1
# [4] = target: Gal(b1-4)GlcNAc(b1-2)[Gal(b1-4)GlcNAc(b1-4)]Man(a1-3)[Gal(b1-4)GlcNAc(b1-2)[Gal(b1-4)GlcNAc(b1-6)]Man(a1-6)]Man(b1-4)GlcNAc(b1-4)GlcNAc
# Outline: as §1
# [5] = target: Gal(b1-4)GlcNAc(b1-2)[Gal(b1-4)GlcNAc(b1-4)]Man(a1-3)[GlcNAc(b1-4)][Gal(b1-4)GlcNAc(b1-2)Man(a1-6)]Man(b1-4)GlcNAc(b1-4)GlcNAc
# Outline: as §1
# [6] = target: Gal(b1-4)GlcNAc(b1-2)[Gal(b1-4)GlcNAc(b1-4)]Man(a1-3)[GlcNAc(b1-4)][Gal(b1-4)GlcNAc(b1-2)[Gal(b1-4)GlcNAc(b1-6)]Man(a1-6)]Man(b1-4)GlcNAc(b1-4)GlcNAc
# Outline: as §1
# [7] = target: Gal(b1-4)GlcNAc(b1-2)[Gal(b1-4)GlcNAc(b1-6)]Man(a1-6)[Gal(b1-4)GlcNAc(b1-2)Man(a1-3)]Man(b1-4)GlcNAc(b1-4)GlcNAc
# Outline: as §1
# [8] = target: Gal(b1-4)GlcNAc(b1-2)[Gal(b1-4)GlcNAc(b1-6)]Man(a1-6)[Gal(b1-4)GlcNAc(b1-2)Man(a1-3)]Man(b1-4)GlcNAc(b1-4)[Fuc(a1-6)]GlcNAc
# Outline: as §1
# [9] = target: Gal(b1-4)GlcNAc(b1-2)[Gal(b1-4)GlcNAc(b1-6)]Man(a1-6)[GlcNAc(b1-4)][Gal(b1-4)GlcNAc(b1-2)Man(a1-3)]Man(b1-4)GlcNAc(b1-4)GlcNAc
# Outline: as §1
# [10] = target: Gal(b1-4)GlcNAc(b1-2)[Gal(b1-4)GlcNAc(b1-6)]Man(a1-6)[GlcNAc(b1-4)][Gal(b1-4)GlcNAc(b1-2)[Gal(b1-4)GlcNAc(b1-4)]Man(a1-3)]Man(b1-4)GlcNAc(b1-4)[Fuc(a1-6)]GlcNAc
# Outline: as §1
# [11] = target: Gal(b1-4)GlcNAc(b1-3)Gal(b1-3)GalNAc
# Outline: as §1
# [12] = target: Gal(b1-4)GlcNAc(b1-3)Gal(b1-3)GlcNAc
# Outline: as §1
# [13] = target: Gal(b1-4)GlcNAc(b1-3)Gal(b1-4)Glc
# Outline: as §1
# [14] = target: Gal(b1-4)GlcNAc(b1-3)Gal(b1-4)GlcNAc
# Outline: as §1
# [15] = target: Gal(b1-4)GlcNAc(b1-3)Gal(b1-4)GlcNAc(b1-2)Man(a1-3)[Gal(b1-4)GlcNAc(b1-3)Gal(b1-4)GlcNAc(b1-2)Man(a1-6)]Man(b1-4)GlcNAc(b1-4)GlcNAc
# Outline: as §1
# [16] = target: Gal(b1-4)GlcNAc(b1-3)Gal(b1-4)GlcNAc(b1-2)Man(a1-3)[Gal(b1-4)GlcNAc(b1-3)Gal(b1-4)GlcNAc(b1-2)Man(a1-6)]Man(b1-4)GlcNAc(b1-4)[Fuc(a1-6)]GlcNAc
# Outline: as §1
# [17] = target: Gal(b1-4)GlcNAc(b1-3)Gal(b1-4)GlcNAc(b1-2)[Gal(b1-4)GlcNAc(b1-3)Gal(b1-4)GlcNAc(b1-6)]Man(a1-6)[Gal(b1-4)GlcNAc(b1-3)Gal(b1-4)GlcNAc(b1-2)Man(a1-3)]Man(b1-4)GlcNAc(b1-4)GlcNAc
# Outline: as §1
# [18] = target: Gal(b1-4)GlcNAc(b1-3)Gal(b1-4)GlcNAc(b1-2)[Gal(b1-4)GlcNAc(b1-3)Gal(b1-4)GlcNAc(b1-6)]Man(a1-6)[Gal(b1-4)GlcNAc(b1-3)Gal(b1-4)GlcNAc(b1-2)Man(a1-3)]Man(b1-4)GlcNAc(b1-4)[Fuc(a1-6)]GlcNAc
# Outline: as §1
# [19] = target: Gal(b1-4)GlcNAc(b1-3)Gal(b1-4)GlcNAc(b1-3)Gal(b1-4)GlcNAc
# Outline: as §1
# [20] = target: Gal(b1-4)GlcNAc(b1-3)Gal(b1-4)GlcNAc(b1-3)Gal(b1-4)GlcNAc(b1-2)Man(a1-3)[Gal(b1-4)GlcNAc(b1-3)Gal(b1-4)GlcNAc(b1-3)Gal(b1-4)GlcNAc(b1-2)Man(a1-6)]Man(b1-4)GlcNAc(b1-4)GlcNAc
# Outline: as §1
# [21] = target: Gal(b1-4)GlcNAc(b1-3)Gal(b1-4)GlcNAc(b1-3)Gal(b1-4)GlcNAc(b1-2)Man(a1-3)[Gal(b1-4)GlcNAc(b1-3)Gal(b1-4)GlcNAc(b1-3)Gal(b1-4)GlcNAc(b1-2)Man(a1-6)]Man(b1-4)GlcNAc(b1-4)[Fuc(a1-6)]GlcNAc
# Outline: as §1
# [22] = target: Gal(b1-4)GlcNAc(b1-3)Gal(b1-4)GlcNAc(b1-3)Gal(b1-4)GlcNAc(b1-2)[Gal(b1-4)GlcNAc(b1-3)Gal(b1-4)GlcNAc(b1-3)Gal(b1-4)GlcNAc(b1-6)]Man(a1-6)[Gal(b1-4)GlcNAc(b1-3)Gal(b1-4)GlcNAc(b1-3)Gal(b1-4)GlcNAc(b1-2)Man(a1-3)]Man(b1-4)GlcNAc(b1-4)[Fuc(a1-6)]GlcNAc
# Outline: as §1
binder,measurement,setting,value
"CrataBL (Crataeva tapia), C0HJA4 (protein) AILTGVPYYILPSTSRAGFSPDNLRKNTSQLSCPLDLITQLRFPRRIGVPVIFTPQNSSLKVVPLSHNLNIHTCSDLWFCPESKIWTVKSSLTHGGSVVTTGGTFRSLGSWFRIERHGDSYKLVHCPRGSTPCRDVGIETVGGGGRRYLAPRDRPLAVRFTRASG",glycan array binding signal (z-score),[1],-0.399
same,glycan array binding signal (z-score),[2],-0.356
same,glycan array binding signal (z-score),[3],-0.346
same,glycan array binding signal (z-score),[4],-0.546
same,glycan array binding signal (z-score),[5],-0.465
same,glycan array binding signal (z-score),[6],-0.343
same,glycan array binding signal (z-score),[7],-0.495
same,glycan array binding signal (z-score),[8],-0.39
same,glycan array binding signal (z-score),[9],-0.358
same,glycan array binding signal (z-score),[10],-0.523
same,glycan array binding signal (z-score),[11],-0.013
same,glycan array binding signal (z-score),[12],-0.453
same,glycan array binding signal (z-score),[13],-0.096
same,glycan array binding signal (z-score),[14],-0.426
same,glycan array binding signal (z-score),[15],1.04
same,glycan array binding signal (z-score),[16],-0.376
same,glycan array binding signal (z-score),[17],0.546
same,glycan array binding signal (z-score),[18],-0.047
same,glycan array binding signal (z-score),[19],-0.406
same,glycan array binding signal (z-score),[20],1.07
same,glycan array binding signal (z-score),[21],-0.307
same,glycan array binding signal (z-score),[22],0.037
